In the supplement of paper PMC8728848:
Some of the results follow.

Tests used:
Assay in all cases: glycan array binding signal (z-score within array); higher = stronger binding
Conditions in all cases: glycan notation: IUPAC condensed, linker removed
[1] = target: Gal(b1-3)[Fuc(a1-4)]GlcNAc(b1-3)Gal(b1-4)[Fuc(a1-3)]GlcNAc
Summary of the method: (§1)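 Negative Z-scores can be read as non-binding. The Z-score is calculated within each array and then averaged across arrays of one protein sequence at different concentrations or buffers and across linkers. Arrays, 3228 in all, were curated from the Consortium for Functional Glycomics database and kept only where the protein sequence was available.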

[2] = target: Gal(b1-3)[GlcNAc(b1-6)]GalNAc
Summary of the method: as §1

[3] = target: Gal(b1-3)[Neu5Ac(a2-6)]GalNAc
Summary of the method: as §1

[4] = target: Gal(b1-3)[Neu5Ac(a2-6)]GlcNAc(b1-6)Gal(b1-4)Glc
Summary of the method: as §1

[5] = target: Gal(b1-3)[Neu5Ac(b2-6)]GalNAc
Summary of the method: as §1

[6] = target: Gal(b1-4)GalNAc(a1-3)[Fuc(a1-2)]Gal(b1-4)GlcNAc
Summary of the method: as §1

[7] = target: Gal(b1-4)GalNAc(b1-3)[Fuc(a1-2)]Gal(b1-4)GlcNAc
Summary of the method: as §1

Gal(b1-4)Glc = target: Gal(b1-4)Glc
Summary of the method: as §1

Gal(b1-4)Glc6S = target: Gal(b1-4)Glc6S
Summary of the method: as §1

Gal(b1-4)GlcNAc = target: Gal(b1-4)GlcNAc
Summary of the method: as §1

[8] = target: Gal(b1-4)GlcNAc(a1-6)Gal(b1-4)GlcNAc
Summary of the method: as §1

[9] = target: Gal(b1-4)GlcNAc(b1-2)Man(a1-3)[Gal(b1-4)GlcNAc(b1-2)Man(a1-6)]Man(b1-4)GlcNAc(b1-4)GlcNAc
Summary of the method: as §1

[10] = target: Gal(b1-4)GlcNAc(b1-3)Gal(b1-3)GlcNAc
Summary of the method: as §1

[11] = target: Gal(b1-4)GlcNAc(b1-3)Gal(b1-4)Glc
Summary of the method: as §1

[12] = target: Gal(b1-4)GlcNAc(b1-3)Gal(b1-4)GlcNAc
Summary of the method: as §1

[13] = target: Gal(b1-4)GlcNAc(b1-3)Gal(b1-4)GlcNAc(b1-3)Gal(b1-4)GlcNAc
Summary of the method: as §1

[14] = target: Gal(b1-4)GlcNAc(b1-3)Gal(b1-4)[Fuc(a1-3)]GlcNAc(b1-3)Gal(b1-4)[Fuc(a1-3)]GlcNAc
Summary of the method: as §1

[15] = target: Gal(b1-4)GlcNAc(b1-3)GalNAc
Summary of the method: as §1

[16] = target: Gal(b1-4)GlcNAc(b1-3)[Gal(b1-4)GlcNAc(b1-6)]Gal(b1-4)GlcNAc
Summary of the method: as §1

[17] = target: Gal(b1-4)GlcNAc(b1-3)[GlcNAc(b1-6)]Gal(b1-4)GlcNAc
Summary of the method: as §1

[18] = target: Gal(b1-4)GlcNAc(b1-6)Gal(b1-4)GlcNAc
Summary of the method: as §1

[19] = target: Gal(b1-4)GlcNAc(b1-6)Gal(b1-4)GlcNAc(b1-6)GalNAc
Summary of the method: as §1

[20] = target: Gal(b1-4)GlcNAc(b1-6)GalNAc
Summary of the method: as §1

[21] = target: Gal(b1-4)GlcNAc(b1-6)[Gal(b1-3)]GalNAc
Summary of the method: as §1

Gal3S(b1-3)GalNAc = target: Gal3S(b1-3)GalNAc
Summary of the method: as §1

Gal3S(b1-3)GlcNAc = target: Gal3S(b1-3)GlcNAc
Summary of the method: as §1

[22] = target: Gal3S(b1-3)[Fuc(a1-4)]GlcNAc
Summary of the method: as §1

Gal3S(b1-4)Glc = target: Gal3S(b1-4)Glc
Summary of the method: as §1

Gal3S(b1-4)Glc6S = target: Gal3S(b1-4)Glc6S
Summary of the method: as §1

Gal3S(b1-4)GlcNAc = target: Gal3S(b1-4)GlcNAc
Summary of the method: as §1

Gal3S(b1-4)GlcNAc6S = target: Gal3S(b1-4)GlcNAc6S
Summary of the method: as §1

[23] = target: Gal3S(b1-4)[Fuc(a1-3)]Glc
Summary of the method: as §1

Gal3S4S(b1-4)GlcNAc = target: Gal3S4S(b1-4)GlcNAc
Summary of the method: as §1

Gal3S6S(b1-4)GlcNAc = target: Gal3S6S(b1-4)GlcNAc
Summary of the method: as §1

Gal3S6S(b1-4)GlcNAc6S = target: Gal3S6S(b1-4)GlcNAc6S
Summary of the method: as §1

Gal4S(b1-4)GlcNAc = target: Gal4S(b1-4)GlcNAc
Summary of the method: as §1

Gal4S6S(b1-4)GlcNAc = target: Gal4S6S(b1-4)GlcNAc
Summary of the method: as §1

Gal6S(b1-4)Glc = target: Gal6S(b1-4)Glc
Summary of the method: as §1

Gal6S(b1-4)Glc6S = target: Gal6S(b1-4)Glc6S
Summary of the method: as §1

Gal6S(b1-4)GlcNAc = target: Gal6S(b1-4)GlcNAc
Summary of the method: as §1

Gal6S(b1-4)GlcNAc6S = target: Gal6S(b1-4)GlcNAc6S
Summary of the method: as §1

GalNAc(a1-3)Gal = target: GalNAc(a1-3)Gal
Summary of the method: as §1

GalNAc(a1-3)GalNAc = target: GalNAc(a1-3)GalNAc
Summary of the method: as §1

GalNAc(b1-3)Gal = target: GalNAc(b1-3)Gal
Summary of the method: as §1

[24] = target: GalNAc(b1-3)Gal(a1-4)Gal(b1-4)GlcNAc
Summary of the method: as §1

B1: Angptl4 (Homo sapiens), Q9BY76 (protein)
chain: MSGAPTAGAALMLCAATAVLLSAQGGPVQSKSPRFASWDEMNVLAHGLLQLGQGLREHAERTRSQLSALERRLSACGSACQGTEGSTDLPLAPESRVDPEVLHSLQTQLKAQNSRIQQLFHKVAQQQRHLEKQHLRIQHLQSQFGLLDHKHLDHEVAKPARRKRLPEMAQPVDPAHNVSRLHRLPRDCQELFQVGERQSGLFEIQPQGSPPFLVNCKMTSDGGWTVIQRRHDGSVDFNRPWEAYKAGFGDPHGEFWLGLEKVHSITGDRNSRLAVQLRDWDGNAELLQFSVHLGGEDTAYSLQLTAPVAGQLGATTVPPSGLSVPFSTWDQDHDLRRDKNCAKSLSGGWWFGTCSHSNLNGQYFRSIPQQRQKLKKGIFWKTWRGRYYPLQATTMLIQPMAAEAAS
glycan array binding signal (z-score) [1]: -0.192 | glycan array binding signal (z-score) [2]: -0.215 | glycan array binding signal (z-score) [3]: -0.354 | glycan array binding signal (z-score) [4]: -0.082 | glycan array binding signal (z-score) [5]: -0.018 | glycan array binding signal (z-score) [6]: -0.132 | glycan array binding signal (z-score) [7]: -0.427 | glycan array binding signal (z-score) (Gal(b1-4)Glc): 0.289 | glycan array binding signal (z-score) (Gal(b1-4)Glc6S): 0.109 | glycan array binding signal (z-score) (Gal(b1-4)GlcNAc): 0.015 | glycan array binding signal (z-score) [8]: 0.52 | glycan array binding signal (z-score) [9]: -0.387 | glycan array binding signal (z-score) [10]: 0.921 | glycan array binding signal (z-score) [11]: -0.407 | glycan array binding signal (z-score) [12]: -0.339 | glycan array binding signal (z-score) [13]: -0.164 | glycan array binding signal (z-score) [14]: 3.98 | glycan array binding signal (z-score) [15]: -0.334 | glycan array binding signal (z-score) [16]: -1.27 | glycan array binding signal (z-score) [17]: -0.27 | glycan array binding signal (z-score) [18]: -0.064 | glycan array binding signal (z-score) [19]: -0.089 | glycan array binding signal (z-score) [20]: -0.296 | glycan array binding signal (z-score) [21]: -0.211 | glycan array binding signal (z-score) (Gal3S(b1-3)GalNAc): -0.195 | glycan array binding signal (z-score) (Gal3S(b1-3)GlcNAc): -0.514 | glycan array binding signal (z-score) [22]: -0.525 | glycan array binding signal (z-score) (Gal3S(b1-4)Glc): -0.052 | glycan array binding signal (z-score) (Gal3S(b1-4)Glc6S): -0.321 | glycan array binding signal (z-score) (Gal3S(b1-4)GlcNAc): -0.362 | glycan array binding signal (z-score) (Gal3S(b1-4)GlcNAc6S): -0.389 | glycan array binding signal (z-score) [23]: 0.244 | glycan array binding signal (z-score) (Gal3S4S(b1-4)GlcNAc): 0.09 | glycan array binding signal (z-score) (Gal3S6S(b1-4)GlcNAc): -0.864 | glycan array binding signal (z-score) (Gal3S6S(b1-4)GlcNAc6S): -0.381 | glycan array binding signal (z-score) (Gal4S(b1-4)GlcNAc): 0.045 | glycan array binding signal (z-score) (Gal4S6S(b1-4)GlcNAc): -0.563 | glycan array binding signal (z-score) (Gal6S(b1-4)Glc): -0.472 | glycan array binding signal (z-score) (Gal6S(b1-4)Glc6S): 0.146 | glycan array binding signal (z-score) (Gal6S(b1-4)GlcNAc): -0.204 | glycan array binding signal (z-score) (Gal6S(b1-4)GlcNAc6S): -0.657 | glycan array binding signal (z-score) (GalNAc(a1-3)Gal): 0.105 | glycan array binding signal (z-score) (GalNAc(a1-3)GalNAc): -0.009 | glycan array binding signal (z-score) (GalNAc(b1-3)Gal): -0.523 | glycan array binding signal (z-score) [24]: 0.337
